Reference: the supplement of paper PMC11166567
The list shows a part of the results.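 Rule for the calls: active = permutation test q below 0.05 after Benjamini-Hochberg correction; inactive = q of 0.05 or more.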

System: U2OS
Assay: mean average precision of replicate retrieval against DMSO controls (Cell Painting phenotypic activity) (fraction (0-1)); higher = stronger, more reproducible morphological phenotype distinct from DMSO; extreme values may be limits of the assay
Conditions: 48 h; 5 µM
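Note: cosine similarity of well-level aggregated Cell Painting profiles ranks each compound's replicate wells against DMSO wells, four replicate plates, significance from 100,000 rank shuffles.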

| SMILES | mean average precision |
| --- | --- |
| Cc1[nH]cnc1CCN | active: 0.497 |
| C[C@@H]1CN(Cc2ccc(F)cc2)CCN1C(=O)COc1ccc(Cl)cc1NC(N)=O | active: 0.727 |
| COc1cc2c(c(OC)c1OC)-c1ccc(OC)c(=O)cc1[C@@H](NC(C)=O)CC2 | active: 1 |
| C[C@@H]1C[C@@H]([C@H](O)CC2CC(=O)NC(=O)C2)C(=O)[C@@H](C)C1 | active: 1 |
| CCCCC/C=C\C/C=C\C/C=C\C/C=C\CCCC(=O)NCCO | inactive: 0.246 |
| O=C1NCN(c2ccccc2)C12CCN(CC1COc3ccccc3O1)CC2 (stereo unspecified) | active: 0.334 |
| C/C(=C\c1csc(C)n1)[C@H]1C[C@@H]2O[C@]2(C)CCC[C@H](C)[C@H](O)[C@@H](C)C(=O)C(C)(C)[C@H](O)CC(=O)O1 | active: 1 |
| COc1ccc(N(C(=O)Oc2c(C)cccc2C)c2ccnc(Nc3ccc(N4CCN(C)CC4)cc3)n2)c(OC)c1 | active: 1 |
| CCC1(C2=NCCN2)Cc2ccccc2O1 (stereo unspecified) | inactive: 0.104 |
| C=C1CCC2(O)C3Cc4ccc(O)c5c4C2(CCN3CC2CC2)C1O5 (stereo unspecified) | active: 0.565 |
| NCC(CS(=O)(=O)O)c1ccc(Cl)cc1 (stereo unspecified) | inactive: 0.101 |
| OC(Cc1ccncc1)C(Cl)(Cl)Cl (stereo unspecified) | inactive: 0.233 |
| O=C1NC(=O)c2c1c1c3ccccc3[nH]c1c1[nH]c3ccccc3c21 | active: 1 |
| O[C@H]1[C@H](O)[C@@H](O)CN2CC[C@H](O)[C@H]12 | inactive: 0.0632 |
| CC(C)(O)C1C2OC(=O)C1C1(O)CC3OC34C(=O)OC2C14C (stereo unspecified) | inactive: 0.0901 |
| Nc1ccncc1 | inactive: 0.19 |
| COc1ccc(C[C@H]2NC[C@H](O)[C@H]2OC(C)=O)cc1 | active: 1 |
| O=P1(N(CCCl)CCCl)NCCCO1 (stereo unspecified) | active: 0.362 |
| C=C(C)[C@@H]1[C@H]2OC(=O)[C@H]1[C@]1(O)C[C@H]3O[C@]34C(=O)O[C@H]2[C@]14C | inactive: 0.0817 |
| CCOC(=O)c1ncc2[nH]c3ccc(OCc4ccccc4)cc3c2c1COC | active: 0.993 |
| FC(F)OC(F)(F)C(F)Cl (stereo unspecified) | inactive: 0.0731 |
